Assay results published in the BET-seq Pho4 binding data (Le et al. 2018).
The other results are listed elsewhere or left out. Values were computed here from the reads of four pooled replicates and scatter widely.

Biological target: T1, Pho4 (S. cerevisiae) (UniProt P07270)
T1 sequence: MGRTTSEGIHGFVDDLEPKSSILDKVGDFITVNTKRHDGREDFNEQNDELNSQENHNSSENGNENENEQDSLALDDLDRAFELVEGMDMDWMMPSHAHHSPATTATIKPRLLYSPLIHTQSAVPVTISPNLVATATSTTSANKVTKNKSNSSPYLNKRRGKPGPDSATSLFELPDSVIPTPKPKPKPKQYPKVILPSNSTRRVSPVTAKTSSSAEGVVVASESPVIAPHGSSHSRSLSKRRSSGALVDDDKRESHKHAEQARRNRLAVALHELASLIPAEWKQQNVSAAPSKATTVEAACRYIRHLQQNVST
Test: relative binding free energy (BET-seq); higher = weaker binding
Details: reference: library average

Relative binding free energy, -0.21 kcal/mol:
TTTGGCACGTGGACTG
TATAGCACGTGGTCTG

Relative binding free energy, 0.34 kcal/mol:
CGGTGCACGTGAGAAT
GTGTTCACGTGGGTTA

Relative binding free energy, 0.4 kcal/mol:
ATCTGCACGTGAATGT

Relative binding free energy, 0.09 kcal/mol:
AGGGCCACGTGAGTTG
TAGTACACGTGTCATG
CTCGGCACGTGTGAGG
ATTGTCACGTGCTGAG
GTCCGCACGTGTTGGT

Relative binding free energy, 0.13 kcal/mol:
TGTTACACGTGGTGTC
GGGAACACGTGTGGGC
TATGACACGTGTGACG
TCGTTCACGTGGAGTA

Relative binding free energy, 0.08 kcal/mol:
ACATACACGTGGTGGT
AGGGTCACGTGTAAGC
AACATCACGTGGTTGG
GGGATCACGTGGAGCG
AGCATCACGTGGAGGG
GAGCGCACGTGTGCGT
TTGTGCACGTGTGTAC

Relative binding free energy, 0.38 kcal/mol:
TGGTACACGTGAGAGA
GATTTCACGTGTGTAG

Relative binding free energy, 0.25 kcal/mol:
TGTGTCACGTGACAGT

Relative binding free energy, 0.43 kcal/mol:
ATTATCACGTGAGGAT

Relative binding free energy, 0.2 kcal/mol:
TTAGTCACGTGTGGGG

Relative binding free energy, -0.01 kcal/mol:
GGGCTCACGTGGGGGA
GTGGTCACGTGGGACA

Relative binding free energy, 0.12 kcal/mol:
ATGTGCACGTGAGACG
TGCGTCACGTGTGGTG
ATATTCACGTGGTGGC
AAATGCACGTGAGGGT
TAGGGCACGTGAATGC
CATATCACGTGGTTAA
GATGTCACGTGCAGTT

Relative binding free energy, 0.03 kcal/mol:
ATATGCACGTGCCTGG
GATAGCACGTGTTTGT

Relative binding free energy, 0.44 kcal/mol:
GGGCTCACGTGAGGAT

Relative binding free energy, 0.17 kcal/mol:
ATGGTCACGTGTTTCG
AGTACCACGTGAGGTT
TATCTCACGTGGTGGC
AGGTGCACGTGAATGG

Relative binding free energy, 0.35 kcal/mol:
AGAGACACGTGAATGG

Relative binding free energy, -0.06 kcal/mol:
GTTGCCACGTGTCGGT
GAGGGCACGTGGAGGC
CTGTACACGTGGAGTG

Relative binding free energy, 0.16 kcal/mol:
TTGTTCACGTGTGCGC
ATGCTCACGTGTTGAT
CAAGTCACGTGTGAGT
AGGCGCACGTGAGTGC
GTTTACACGTGTATGG

Relative binding free energy, 0.06 kcal/mol:
GAGATCACGTGGTTAG
TTGGTCACGTGGTCGA
ATTATCACGTGTATGG
TTTTGCACGTGTTGTG
TATCGCACGTGTAGTA
ACAGTCACGTGTAGGG

Relative binding free energy, -0.27 kcal/mol:
AGAAGCACGTGGTAGG
CGTGGCACGTGGGCTT
CAGGGCACGTGGGGTG

Relative binding free energy, -0.2 kcal/mol:
GGTAGCACGTGGCTAG
TAAGGCACGTGCTGGG
TGTTGCACGTGGTACG

Relative binding free energy, -0.22 kcal/mol:
CGCTGCACGTGGGGTT
ATAAGCACGTGGTGTA
TGTACCACGTGGGGGC
TTTTGCACGTGGGCAG
ATAGGCACGTGTTCTT

Relative binding free energy, 0.32 kcal/mol:
ATATTCACGTGAGGTG
GTTTGCACGTGAGCTT
AGGATCACGTGTAGAA
TTGATCACGTGAGAAG

Relative binding free energy, -0.31 kcal/mol:
TCTAGCACGTGGTGTG

Relative binding free energy, -0.18 kcal/mol:
CTTGGCACGTGTTAGA

Relative binding free energy, 0.23 kcal/mol:
TGACTCACGTGTGTGG

Relative binding free energy, -0.24 kcal/mol:
CGAGGCACGTGGGGAG

Relative binding free energy, 0.26 kcal/mol:
GTCATCACGTGTTTCG
TTCCTCACGTGTAGTG
AGTAACACGTGAGTGC

Relative binding free energy, -0.08 kcal/mol:
GCTTGCACGTGATGGG
GACGCCACGTGGAGGG
AGTGACACGTGTGTAG

Relative binding free energy, 0.04 kcal/mol:
GGCATCACGTGGATGG
AAGATCACGTGTGGAG

Relative binding free energy, -0.04 kcal/mol:
TTGGACACGTGGGAAG
GTGTACACGTGGTGGA
TTTAGCACGTGCGCTG

Relative binding free energy, -0.23 kcal/mol:
CTTTGCACGTGGGGTA

Relative binding free energy, 0.01 kcal/mol:
GGTGGCACGTGGAAGC
TGGCGCACGTGGAAAG
CGGGGCACGTGTGTTA
TTTTGCACGTGGTTCC
CTGGACACGTGGTGAG

Relative binding free energy, 0.02 kcal/mol:
CGATACACGTGGTGTT
GGTGTCACGTGCTCGG
TTAGGCACGTGTAGTG
CGGTGCACGTGTAAAG
GCTTGCACGTGTGGCT

Relative binding free energy, -0.3 kcal/mol:
TTACGCACGTGGGGTC

Relative binding free energy, 0 kcal/mol:
GCGTGCACGTGGTTTT
CGTCACACGTGTTTGG
ATCGTCACGTGTTTTA
TGGGCCACGTGACTGG

Relative binding free energy, 0.07 kcal/mol:
GTGTGCACGTGACATG
TCGCTCACGTGTGTGG
ATGGACACGTGTAGCT
CTGCACACGTGTGGGG
TGGAACACGTGGACGG
TGAGCCACGTGTGTTA
GGTATCACGTGCTGGG

Relative binding free energy, 0.42 kcal/mol:
TATTTCACGTGCGGGC

Relative binding free energy, 0.46 kcal/mol:
GATTTCACGTGAGTAG
GCCTTCACGTGAGGGG

Relative binding free energy, -0.03 kcal/mol:
TGGAGCACGTGTGGCC
GGGCGCACGTGTGGTG
ACGGGCACGTGTCGGA
AGAAACACGTGGGGTT
TTGGACACGTGCTGTG

Relative binding free energy, 0.15 kcal/mol:
TGTTGCACGTGAAGAG
TTGTGCACGTGATTGC
GGGGTCACGTGGCTCG
ATAAGCACGTGTAAAG

Relative binding free energy, -0.1 kcal/mol:
AGGGGCACGTGGAGAA
GCTGGCACGTGGGAGA
GTGCGCACGTGTATTT
CGGTACACGTGGTTTA
GGATGCACGTGTTGGC

Relative binding free energy, -0.02 kcal/mol:
TGTCGCACGTGATTAG
TTGGCCACGTGGTTGG
TGCGGCACGTGTGAGG
GGGGCCACGTGCTTGA

Relative binding free energy, -0.11 kcal/mol:
CTTGACACGTGGGTGA
AGTGGCACGTGTGTGT
GTCGACACGTGGGTAG

Relative binding free energy, 0.05 kcal/mol:
CGGAGCACGTGTAGTG
AAGTACACGTGGGAGT
CGACACACGTGTGGGT
TTGAGCACGTGGAACG
ACACTCACGTGGGGGG
AATTGCACGTGGATGG

Relative binding free energy, 0.29 kcal/mol:
GTTTCCACGTGTGCTT
ATTGTCACGTGAGGGT

Relative binding free energy, -0.17 kcal/mol:
CGACGCACGTGTGGGG
TTAGGCACGTGGGCAG

Relative binding free energy, 0.45 kcal/mol:
TTGGACACGTGAATAA

Relative binding free energy, 0.33 kcal/mol:
GTAGTCACGTGAGATG

Relative binding free energy, -0.16 kcal/mol:
AACAGCACGTGGGGTG
GGGGGCACGTGGGCGC

Relative binding free energy, -0.14 kcal/mol:
CTGGACACGTGGGTGG
TGTGGCACGTGGTGTT
ATAGGCACGTGTACGG

Relative binding free energy, -0.13 kcal/mol:
GTCGCCACGTGGGGCT
TAAAGCACGTGGTATA
AGGCGCACGTGGAGGA
TGAGGCACGTGGTTGT
AGTAGCACGTGGGAGT
GGTGCCACGTGTTCGT

Relative binding free energy, -0.28 kcal/mol:
AGGGGCACGTGGTATG
GGAAGCACGTGGGGAA

Relative binding free energy, 0.19 kcal/mol:
TTTATCACGTGTATCT
TTGTGCACGTGAACAG
AGATACACGTGTTAAG
ATAGTCACGTGAAGAG
TTGAACACGTGTTATC

Relative binding free energy, 0.18 kcal/mol:
GGGTGCACGTGTGATG
GTATTCACGTGTTTGT
TAACTCACGTGTTATT

Relative binding free energy, 0.47 kcal/mol:
TCATACACGTGAGGGT

Relative binding free energy, 0.11 kcal/mol:
GTTATCACGTGCATGT
AGGTACACGTGTGTGT
CTTATCACGTGGGATG
GACGGCACGTGATGGG

Relative binding free energy, 0.24 kcal/mol:
TTGTTCACGTGTAATA
TGTTGCACGTGAGTCG
GTTGTCACGTGACGGT
TAGTTCACGTGAGTGA
GGTGTCACGTGTTAGC

Relative binding free energy, -0.05 kcal/mol:
AATGACACGTGCGGGA
AGAGACACGTGGGGTT

Relative binding free energy, -0.15 kcal/mol:
CGGCGCACGTGGGCAG
GTGTACACGTGGCTGT
GTTAGCACGTGGGTAA
TGACGCACGTGGTATA
TTAGGCACGTGGCATA
TTGTGCACGTGGGCTT

Relative binding free energy, 0.28 kcal/mol:
GAAGTCACGTGGAAGT
TGTTTCACGTGTGTTA
GGACACACGTGAGTGT

Relative binding free energy, 0.1 kcal/mol:
AGTGGCACGTGAGCTA
GGGGGCACGTGACTTG
TATGTCACGTGCGGAT
TTAGACACGTGATGTT

Relative binding free energy, -0.07 kcal/mol:
TTACGCACGTGTGGGC
GGGGACACGTGGTTAA
TGTAACACGTGGGCCG
GGTAGCACGTGGGAGC
CGTGTCACGTGGTGAG
TAATGCACGTGCTGGT
CGGAACACGTGGTGGT

Relative binding free energy, -0.12 kcal/mol:
CGGGGCACGTGGGTAA
TCTAACACGTGGGGGG

Relative binding free energy, 0.49 kcal/mol:
GAGTTCACGTGTGGTC

Relative binding free energy, 0.27 kcal/mol:
ATTTGCACGTGATAAT

Relative binding free energy, 0.31 kcal/mol:
TGAAACACGTGAGATG
TTTTTCACGTGTTTTC
TTGTACACGTGAAGCT
GGGTTCACGTGGTCCG
ATTTTCACGTGAATAT

Relative binding free energy, 0.22 kcal/mol:
AATCTCACGTGTGGTA
GTCTTCACGTGGCTTT
TGCATCACGTGAGGGG
GGTCTCACGTGTATAT
GATGTCACGTGTGATG
TAGTACACGTGTCGGA

Relative binding free energy, 0.41 kcal/mol:
TGTTTCACGTGAACTG
TGGTTCACGTGAGGCG

Relative binding free energy, 0.14 kcal/mol:
GGTATCACGTGGTGTC
AAGGTCACGTGGAATG
GCTATCACGTGGGTGC
GTCTACACGTGTGTAT
ATATACACGTGTAAGT
GGGCCCACGTGTGGTT

Relative binding free energy, 0.21 kcal/mol:
ATTTCCACGTGATGTA
GGTTGCACGTGTCGTC

Relative binding free energy, -0.09 kcal/mol:
ACGAGCACGTGTGGGC
ATTAGCACGTGATCGG
CGATACACGTGGTTTG

Relative binding free energy, -0.19 kcal/mol:
GGTGCCACGTGGGCGG

Relative binding free energy, 0.37 kcal/mol:
TTGATCACGTGAGTGG
TGATTCACGTGTGGGC
